Test results as given in PubChem BioAssay AID504832 (National Center for Advancing Translational Sciences (NCATS), 2011).
Among all 310,000 compounds or so, about 18,000 (5.8%) were called active. Inconclusive means that the source gave no clear call. Such entries were picked first, then a sample of the others. The call rests on the fitted dose curve; in most records, active means well fitted inhibition curve with a large enough effect; inconclusive means small, poorly fitted or top-dose-only effect, or another doubt; inactive means no such curve, though single readings can be large or run the other way. No potency is given beside an inconclusive call; the fits are too rough.

Experiment: Primary qHTS for delayed death inhibitors of the malarial parasite plastid, 48 hour incubation
Settings: P. falciparum luciferase growth in erythrocytes; series mostly up to 28.7 µM; activity change, negative = inhibition: at the top concentration
In short: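 Erythrocytes infected with P. falciparum carrying an integrated firefly luciferase reporter (2% hematocrit, 0.1% parasitemia final) were exposed to compounds in RPMI 1640 with 0.5% Albumax at 37 C, 5% CO2. Growth inhibition was scored as reduced luminescence.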
On the % scale 0 is the no-effect control and ±100 the full control effect; potency means the concentration at half of the fitted maximal effect; tags describe the fitted curve by direction and shape.

Compound	activity change, negative = inhibition	Potency
Cc1cc(C)nc(SCC(=O)NCc2ccco2)n1	inactive: 6.4%	
CCOc1ccc(S(=O)(=O)NCc2ccccn2)cc1NC(=O)c1ccccc1F	inactive: -15.7%	
O=C(Nc1ccc2sccc2c1)c1cccc(N2C(=O)CCC2=O)c1	inactive: 5.16%	
CCOc1ccc(N2C(=O)CN(CC(=O)OC)C2=S)cc1	inactive: 12.2%	
CCOc1ccccc1C(=O)Nc1ccc(-n2nncc2C(C)(C)C)cc1		inconclusive [inhibitor, partial curve, poor fit]
COc1ccccc1N1CCN(C2CCCCC2NS(=O)(=O)c2ccccc2)CC1 (stereo not given)		inconclusive [inhibitor, single point]
COc1cccc(C(C(=O)NC2CCCCC2)N(C(=O)Cc2cccs2)c2ccc(-n3cnnn3)c(OC)c2)c1 (stereo not given)		active: 10.4 µM
COc1cc(C2NC(=O)NC(C)=C2C(=O)OCc2ccccc2)ccc1O (stereo not given)		inconclusive [inhibitor, single point]
CCOc1ccc(S(=O)(=O)Nc2cccc(C(=O)NCC(c3ccccc3)N(C)C)c2)cc1 (stereo not given)	inactive: 19.8%	
Cc1cc(=O)n(-c2ccc3ccccc3n2)[nH]1	inactive: -11.9%	
O=C(CCCCCn1c(=O)[nH]c2ccsc2c1=O)NCc1ccc(F)cc1		inconclusive [inhibitor, single point]
Cc1cc(C)c(O)c(-c2n[nH]c3c2C(c2cccc(O)c2)N(Cc2ccco2)C3=O)c1 (stereo not given)	inactive: -21.2%	
Cc1c(Cc2ccccc2)c(=O)oc2cc(OCC(=O)N[C@@H](Cc3ccccc3)C(=O)O)ccc12	inactive: -27.2%	
COc1cccc(NC(=O)CN(C)C(C)C(=O)N2CCCC2)c1 (stereo not given)		inconclusive [inhibitor, single point]
O=C(Nc1cccnc1)c1ccc([N+](=O)[O-])o1		inconclusive [inhibitor, single point]
O=C(NCc1ccccc1)c1c[nH]c2cc3c(cc2c1=O)OCCO3	inactive: 10.7%	
Cc1cccc(OC(C)c2ccnc3nc(/N=C/N(C)C)nn23)c1 (stereo not given)		inconclusive [inhibitor, single point]
O=C(Cc1ccccc1)Nc1cccc(N2CCCC2)c1		inconclusive [inhibitor, single point]
O=C(Nc1ccccc1)C1=C[C@H](c2coc3ccccc3c2=O)C[C@H](OCc2ccc(CO)cc2)O1		inconclusive [inhibitor, partial curve]
Cc1cccc(NC(=O)CSCC(=O)Nc2cc(Cl)ccc2N2CCN(C)CC2)c1		inconclusive [inhibitor, partial curve, poor fit]
